In PubChem BioAssay AID1347120 (National Center for Advancing Translational Sciences (NCATS), 2019):
The campaign covered roughly 390,000 compounds. About 930 (0.24%) were called active. Inconclusive results, whose numbers are uncertain, are shown with a selection of clear calls. Calls come from the whole dose curve; as a rule, active = well fitted activation curve with a large enough effect; inconclusive = small, poorly fitted or top-dose-only effect; inactive = no such curve, though single readings can be large or run the other way. Potencies beside an inconclusive call are fits to weak or partial responses and may not hold up.

experiment: qHTS for Suppressors of FUS Proteinopathy: Primary screen using FUS-linked yeast assay; note: nearly all actives have a fitted effect of over 55% in size;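 for growth rescue (activation): plate controls were DMSO vehicle for no effect and reference control for full effect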; conditions: S. cerevisiae FUS-expressing, OD600, 24 h; Potency: growth rescue; growth rescue (activation): at 76.6 µM (top of the series)
Method in brief: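 Read-out: OD at 600 nm after 24hr at 30C, reporting rescue of FUS-induced yeast toxicity. Cells at OD 0.005 in galactose (2%) minimal medium; compounds tested in a dilution series; CP55940 titration from 92uM final as control.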
Potency is the fitted concentration of half-maximal effect; tags give direction and shape of the fitted curve.

Compound | Potency | growth rescue (activation)
Cc1ccc(CC2CC(=O)N(CCc3ccc4c(c3)OCO4)C2=O)cc1 (stereo unspecified) | inactive | –
CC(C)=C[C@H]1C[C@H](C)[C@H]2CC[C@H](C)c3c(O[C@@H]4OC[C@@H](O)[C@H](O)C4O)c(O)c(C)c1c32 (stereo partly specified) | inconclusive: 50.1 µM [activator, single point] | –
O=c1c2c(-c3ccccc3)csc2ncn1/N=C/c1c2ccccc2cc2ccccc12 | inconclusive: 17.8 µM [activator, partial curve, poor fit] | –
CCN1CCN(Cc2ccc(NC(=O)c3ccc(C)c(NC(=O)c4csc(-c5ccncc5)n4)c3)cc2C(F)(F)F)CC1 | inactive | –
CC(=O)Nc1ccc(S[C@@H](CCN2CC[C@H](C(C)(C)C)CCC2=O)c2ccccc2)cc1 | inconclusive: 28.2 µM [activator, single point] | –
CN(Cc1ccc(Cl)c(Cl)c1)C(=O)c1[nH]c(C(F)(F)F)nc1-c1ccccc1 | inconclusive: 50.1 µM [activator, single point] | –
COc1cc(C(=O)Nc2ccc(C)cc2C(NCC(=O)NN)c2ccccc2)cc(OC)c1OC (stereo unspecified) | inconclusive: 25.1 µM [activator, partial curve, poor fit] | –
COc1cc(NC(=O)c2ccc(-c3cnn(C)c3)c3ccoc23)cc(OC)c1OC | inconclusive: 28.2 µM [activator, single point] | –
COc1ccc(-c2noc(CN(C(=O)c3cccs3)C(C)C)n2)cc1 | – | inconclusive: 32.5% [activator]
CCOC(=O)/C(=N\Nc1ncnc2ccccc12)c1ccc(C)cc1 | inconclusive: 44.7 µM [activator, single point] | –
Cc1cc(C)nc(Nc2ccc(N3CCCC3)cc2)n1 | inconclusive: 25.1 µM [activator, partial curve, poor fit] | –
CCOC(=O)c1ccccc1NC(=O)Cn1c(=O)n(CCC(=O)N2CCc3ccccc3C2)c(=O)c2ccccc21 | inconclusive: 25.1 µM [activator, single point] | –
COc1cccc(CNC(=O)CSc2nc(=O)[nH]c3c2CCC3)c1 | inactive | –
CNC(=O)c1c(NC(=O)c2ccc(N3C(=O)CCC3=O)cc2)sc2c1CCCC2 | inconclusive: 25.1 µM [activator, single point] | –
O=C(CCc1ccccc1)N(Cc1cccnc1)c1nc2c(F)cc(F)cc2s1 | inactive | –
CN(Cc1ccccc1)C(=O)c1[nH]cnc1C(=O)N[C@@H](CCCCNC(=O)OC(C)(C)C)C(=O)OC(C)(C)C | inconclusive: 31.6 µM [activator, single point] | –
CCn1c(SCC(=O)c2ccc3c(c2)Cc2ccccc2-3)nnc1-c1ccc(N)cc1 | inconclusive: 22.4 µM [activator, partial curve, poor fit] | –
COc1ccc(-n2nnnc2-c2cccc(OC)c2)cc1 | inactive | –
O=C(Oc1cc(Cl)ccc1Cl)c1ccc(N2CCOCC2)c([N+](=O)[O-])c1 | inactive | –
C=CCn1c(COc2ccc(CC)cc2)nnc1SC/C(O)=C(\C#N)c1nc2ccccc2[nH]1 | inconclusive: 14.1 µM [activator, partial curve, poor fit] | –
CN1/C(=C/C2CC(=O)N(c3ccc([N+](=O)[O-])cc3)C2=O)C(C)(C)c2ccccc21 (stereo unspecified) | inconclusive: 17.8 µM [activator, partial curve, poor fit] | –

Compound | Potency | growth rescue (activation)
Cc1cc(C)c(OCC(=O)Nc2nc(-c3ccccn3)cs2)c(C)c1 | inconclusive: 20 µM [activator, single point] | –
COc1ccccc1OCCn1c(C(C)Oc2ccccc2)nc2ccccc21 (stereo unspecified) | inconclusive: 44.7 µM [activator, single point] | –
CC(=O)Nc1ccc(SCC(=O)NCCc2ccc(F)cc2)cc1 | – | inconclusive: -108% [activator]
O=C(O)c1ccccc1-c1ccccc1C(=O)Nc1ccc(-c2nc3cc(Cl)ccc3o2)cc1 | inconclusive: 31.6 µM [activator, single point] | –
COc1ccc2[nH]c3c(=O)n(CCCCC(=O)NCCN4CCCC4)c(=S)[nH]c3c2c1 | inconclusive: 8.91 µM [activator, full curve, poor fit] | –
CN(Cc1ccccc1)C(=O)c1ccc(NC(=O)Cc2cccc(NC(=O)C3CCN(C(=O)C4CCCCC4)CC3)c2)cc1 | inconclusive: 17.8 µM [activator, partial curve, poor fit] | –
O=C(CN1CCSCC1)c1c[nH]c2ccccc12 | inconclusive: 0.891 µM [activator, full curve, poor fit] | –
COc1ccc(OC)c(NC(=O)c2nnn(CC(=O)Nc3ccc4c(c3)OCO4)c2N)c1 | inconclusive: 39.8 µM [activator, single point] | –
CC(=O)c1cc(-c2ccccc2)n(CCC(=O)Nc2ccc(C(C)C)cc2)c1C | inconclusive: 28.2 µM [activator, single point] | –
CCCCNC(=O)c1cc2c(=O)n3cccc(C)c3nc2s1 | inconclusive: 2.24 µM [activator, full curve] | –
COc1ccccc1CNC(=O)c1ccc2c(c1)N(Cc1cc(C)ccc1C)C(=O)c1ccccc1S2 | inconclusive: 3.55 µM [activator, full curve] | –
COc1ccc(S(=O)(=O)NC(C)C(=O)NCc2ccncc2)cc1Cl (stereo unspecified) | inconclusive: 10 µM [activator, partial curve] | –
COC(CN1C(=O)C(O)=C(C(C)=O)C1c1ccccn1)OC (stereo unspecified) | inactive | –
O=C(Nc1ncc(S(=O)(=O)c2ccc([N+](=O)[O-])cc2)s1)c1cccc2ccccc12 | inconclusive: 3.98 µM [activator, full curve, poor fit] | –
Cc1ccc(CNC(=O)c2oc3ccc(S(=O)(=O)N4CCC(C)CC4)cc3c2C)cc1 | inconclusive: 35.5 µM [activator, partial curve, poor fit] | –
Cn1c(Cc2cccs2)nnc1SCC(=O)Nc1ccc2c(c1)OCO2 | inactive | –
Cc1ccc(S[C@@H](CCN2CC[C@H](C)CCC2=O)c2ccccc2)cc1 | inconclusive: 22.4 µM [activator, partial curve, poor fit] | –
CCCCN1C(=O)CN(C2CCCCCC2)C(=O)C1c1ccc(OC(C)C)c(OC)c1 (stereo unspecified) | inactive | –
Cc1cc(C(=O)CN2C(=O)NC3(CCCCC3)C2=O)c(C)n1-c1ccc2c(c1)OCO2 | inconclusive: 25.1 µM [activator, partial curve, poor fit] | –
O[C@H]1C[C@H](c2ccc(Cl)cc2)N(CC2CCCCC2)C[C@@H]1n1cc(-c2ccc(F)cc2)nn1 | inactive | –
CNC(=S)Nc1cc(S(=O)(=O)Nc2cc(Cl)ccc2Cl)ccc1N1CCCC1 | inconclusive: 44.7 µM [activator, single point] | –

Compound | Potency | growth rescue (activation)
Cc1oc(-c2ccc(F)cc2)cc1-c1nn2c(-c3ccoc3C)nnc2s1 | inactive | –
CC1CCC(Nc2ncnc3onc(-c4ccc(Cl)cc4)c23)CC1 (stereo unspecified) | inactive | –
C[C@H]1[C@@H](NS(=O)(=O)c2ccccc2[N+](=O)[O-])CC[C@@]23CCCN2C(=O)CCC[C@@H]13 | inactive | –
O=C(c1coc(=O)c(Br)c1)N1CCCc2ccccc21 | inconclusive: 28.2 µM [activator, partial curve, poor fit] | –
O=C(Nc1ccc2nc(SCC(=O)N3CCCc4ccccc43)sc2c1)c1cccc(Cl)c1 | inconclusive: 14.1 µM [activator, partial curve, poor fit] | –
CCCCNC(=O)CC1N=C2c3ccccc3N=C(SCC(=O)Nc3cccc(C)c3)N2C1=O (stereo unspecified) | inconclusive: 35.5 µM [activator, single point] | –
CCCC(=O)OC12CCCN(C1)/C(=C/c1cccc(Cl)c1)C2 (stereo unspecified) | inactive | –
CCOC(=O)CC(=O)CSc1ncnc2c1oc1ccccc12 | inconclusive: 17.8 µM [activator, partial curve, poor fit] | –
CCCCc1nc(NCCNC(=O)c2ccco2)c(C#N)c2c1CSC(C)(C)C2 | inconclusive: 28.2 µM [activator, partial curve, poor fit] | –
O=C(Cn1c(=O)n(-c2ccc(F)cc2)c(=O)c2sc3ccccc3c21)NC1CCCCC1 | inactive | –
COc1ccc([C@H]2C[C@@H](O)[C@H](n3cc(COC(=O)c4ccccc4)nn3)CN2CC2CCCCC2)cc1 | inconclusive: 25.1 µM [activator, partial curve] | –
Cc1ccccc1NC(=O)CN1C(=O)S/C(=C\c2cccn2-c2cccc(C(=O)O)c2)C1=O | inconclusive: 2.82 µM [activator, full curve] | –
Cc1cc(C)nc(NC(=S)N2CCN(c3ncc(C(F)(F)F)cc3Cl)CC2)c1 | inactive | –
CCOC(=O)CSc1nc2sc3c(c2c(=O)n1-c1ccc(OC)cc1)CCN(C)C3 | inconclusive: 28.2 µM [activator, partial curve, poor fit] | –
CC(=O)O[C@@H]1CCC[C@@]2(C(=O)N(Cc3ccccc3)c3ccc(-c4c(C)noc4C)cc32)[C@H]1NC(=O)CCc1ccccc1 | inconclusive: 8.91 µM [activator, full curve, poor fit] | –
O=C(N/N=C/C=C/c1ccccc1)c1ccncc1 | inactive | –
CC(C)N(Cc1nnc(-c2ccc(Cl)cc2)o1)C(=O)c1cc2ccccc2o1 | inconclusive: 28.2 µM [activator, single point] | –
COc1cccc(-c2cc(C(=O)N3CCN(C(c4ccccc4)c4ccccc4)CC3)no2)c1 | inconclusive: 39.8 µM [activator, single point] | –
CCCCOc1ccc(C(=O)Nc2ccncc2)cc1 | inactive | –
